The campaign covered roughly 220,000 compounds. About 16,000 (7.3%) were called active. Inconclusive results, whose numbers are uncertain, are shown with a selection of clear calls. Calls follow the shape of the dose curve; as a rule, active = well fitted inhibition curve with a large enough effect (not every such curve was filed as active); inconclusive = small, poorly fitted or top-dose-only effect, or another doubt; inactive = no such curve, though single readings can be large or run the other way. A potency beside an inconclusive call is a rough fit, not a confirmed value.
What follows are molecules tested against Aldehyde dehydrogenase 1A1 (Homo sapiens) (UniProt P00352) (assay: qHTS Assay for Inhibitors of Aldehyde Dehydrogenase 1 (ALDH1A1)). Conditions: Purified ALDH1A1, NADH fluorescence, propionaldehyde substrate; series mostly up to 75.3 µM; activity, negative = inhibition: at the top concentration.
UniProt P00352, sequence (P00352 whole entry, looked up): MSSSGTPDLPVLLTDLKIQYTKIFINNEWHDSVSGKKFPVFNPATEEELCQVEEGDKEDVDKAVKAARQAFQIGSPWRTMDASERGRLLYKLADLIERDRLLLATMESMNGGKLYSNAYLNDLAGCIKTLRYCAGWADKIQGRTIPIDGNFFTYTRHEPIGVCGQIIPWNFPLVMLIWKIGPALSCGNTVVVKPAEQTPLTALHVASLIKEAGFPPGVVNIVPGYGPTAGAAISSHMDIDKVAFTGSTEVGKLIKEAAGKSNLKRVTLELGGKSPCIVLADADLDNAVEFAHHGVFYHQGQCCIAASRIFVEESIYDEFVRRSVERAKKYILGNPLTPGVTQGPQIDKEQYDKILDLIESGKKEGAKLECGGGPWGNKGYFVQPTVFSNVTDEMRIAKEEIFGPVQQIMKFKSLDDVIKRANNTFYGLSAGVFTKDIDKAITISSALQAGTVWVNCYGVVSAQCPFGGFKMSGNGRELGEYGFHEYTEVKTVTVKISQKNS

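For activity, negative = inhibition in this document: plate controls were no enzyme wells and a reference inhibitor.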
Potency is read from the fitted curve at half-maximal effect; tags tell the direction and shape of the fitted curve.

Potency, inconclusive:
CCCn1cnc2c(c1=O)c1nc3ccccc3nc1n2CCc1ccccc1 7.94 µM [inhibitor, partial curve]
COc1cc(/C=N/n2nnnc2N)ccc1OCc1c(C)no[n+]1[O-] 35.5 µM [inhibitor, single point]
Cc1ccc(CSc2nc3c(c(=O)[nH]c(=O)n3C)n2CCC(C)C)cc1 14.1 µM [inhibitor, partial curve]
COc1cccc(Cn2c(=O)c(CCc3ccccc3)nc3cnc(N4CCN(C)CC4)nc32)c1 39.8 µM [inhibitor, single point]
N#Cc1nc(Cc2ccccc2)oc1NCc1ccccc1Cl 39.8 µM [inhibitor, single point]
CCOc1cc2[nH]c(=S)n(C3CC3)c(=O)c2cc1OCC 31.6 µM [inhibitor, partial curve]
CCCC(=O)Nc1cc(C)c(NC(=O)c2ccccn2)cn1 39.8 µM [inhibitor, single point]
CCOC(=O)C1=C(C)NC(C)=C(C(=O)OCC)C1c1cc2ccc(C)cc2[nH]c1=O 39.8 µM [inhibitor, single point]
Cc1oc(-c2cccs2)nc1CSCC(=O)NC1CC1 23.8 µM [inhibitor, single point]
COc1cccc(C2CC(c3cccs3)=NN2C(=O)CSc2nc3ccccc3s2)c1OC (centres undefined) 22.4 µM [inhibitor, partial curve]
O=C(C1=NN[C@@H]2C(=O)N(c3cccc(F)c3)C(=O)[C@H]12)c1ccc2ccccc2n1 39.8 µM [inhibitor, single point]
CCN(CC)CCNc1nc(-c2ccco2)c2c(c1C#N)CC(C)(C)OC2 25.1 µM [inhibitor, partial curve]
Cc1cc(C)c2[nH]c(=O)c(CN(CC3CCCO3)C(=S)Nc3ccccc3)cc2c1 (centres undefined) 35.5 µM [inhibitor, single point]
COC(=O)c1cc(=O)n(C2CC2)c(=NC2CC2)s1 44.7 µM [inhibitor, single point]
COc1cccc(-n2cc3c(c2-c2ccccc2)c(=O)n(C)c(=O)n3C)c1 14.1 µM [inhibitor, partial curve]
CC(=O)n1c(C=Nc2ccccc2)c(O)c2ccccc21 35.5 µM [inhibitor, single point]
COc1cc(SC)ccc1C(=O)Nc1ccc(C)cc1C 44.7 µM [inhibitor, single point]
Nc1c(C(=O)N2CCCC2)sc2nc3c(cc12)CCCCCC3 28.2 µM [inhibitor, partial curve]
CCc1nn(CCCC(=O)N2CCc3ccccc3C2)c(=O)c2cc3occc3n12 35.5 µM [inhibitor, single point]
Cc1ccc(-c2cc3nn(-c4ccccc4)c(N)c3c(=O)o2)cc1 35.5 µM [inhibitor, single point]
Cc1ccc(Nc2c(N)c(=O)oc3ccccc23)cc1 39.8 µM [inhibitor, single point]
COCCN(C(=S)Nc1c(C)cc(C)cc1C)C(C)c1cccnc1 (centres undefined) 20 µM [inhibitor, partial curve]
Nc1ccc2oc(-c3cccc4ccccc34)nc2c1 35.5 µM [inhibitor, single point]
CCOc1ccc(/C(CCC(=O)O)=N/NC(=S)NC(C)C)cc1 39.8 µM [inhibitor, single point]
Cc1cc(C)nc(Sc2nc(C)nc3c2oc2ccccc23)n1 39.8 µM [inhibitor, single point]
CCOC(=O)N1CCC(NC(=O)CSCc2nc(-c3sccc3C)oc2C)CC1 28.2 µM [inhibitor, partial curve]
Cc1cccc(C(C)Nc2ccc([N+](=O)[O-])cn2)c1 (centres undefined) 31.6 µM [inhibitor, partial curve, poor fit]
CCOC(=O)N1CCN(C(=O)c2cc(-c3ccc(OCC)cc3)nc3ccccc23)CC1 35.5 µM [inhibitor, partial curve]
O=C(Cc1cccs1)N/N=C/C(Cl)=C/c1ccccc1 28.2 µM [inhibitor, single point]
O=C(OCc1cnc(Cl)s1)c1cccc(Cl)c1 39.8 µM [inhibitor, single point]
Cc1csc(Nc2ccc(Cl)cc2)[n+]1-c1ccc(Cl)cc1 39.8 µM [inhibitor, single point]

Potency, active:
COc1ccc(Cc2nnc(SCC(=O)N3CCCC(C)C3)o2)cc1 (centres undefined) 0.891 µM
O=C(/C=C/c1ccccc1)Nc1cccc(S(=O)(=O)Nc2ccccc2F)c1 0.794 µM
Cc1ccnc(NC(=O)CCC(=O)N(CC(=O)NCc2ccccc2)Cc2cccs2)c1 15.8 µM
O=C(Cn1[nH]c(=O)c2ccccc2c1=O)Nc1ccc(-c2nnc3n2CCCCC3)cc1 14.1 µM
CCOc1ccc(C2NC(=O)C(C#N)=C(S)N2c2ccc(OC)cc2)cc1OC (centres undefined) 20 µM

activity, negative = inhibition, inactive:
CCOc1cc(S(=O)(=O)N2CCC(c3nc4ccccc4s3)CC2)c(OCC)cc1S(=O)(=O)N1CCCCC1 -0.756%
CC(C1CC1)N(C(=O)c1ccccc1O)c1ccccc1 (centres undefined) -2.23%
COc1cc(S(=O)(=O)NCC2CCCO2)ccc1Br (centres undefined) -6.33%
Cc1ccccc1OCc1n[nH]c(=S)n1-c1ccccc1 3.74%
CN1CCN(S(=O)(=O)c2cccc(C(=O)NCc3ccccc3Cl)c2)CC1 5.9%
COc1ccc(OC)c(-c2nc(C(N)=O)c3[nH]c(=O)n(-c4ccc(F)cc4)c3n2)c1 0.815%
COc1ccc(N2CCN(c3ncnc4c3[nH]c3ccccc34)CC2)cc1 -0.134%
Cc1cc(Cl)c(OCCCN(C)C)c(Br)c1 -11.5%
